Assay [1] addresses T1, human PDL2-EGFP on HEK293 cells (human, UniProt Q9BQ51 20-273).
T1 construct: whole, on cells; not shown: EGFP protein fused to the C-terminus
T1 sequence (looked up): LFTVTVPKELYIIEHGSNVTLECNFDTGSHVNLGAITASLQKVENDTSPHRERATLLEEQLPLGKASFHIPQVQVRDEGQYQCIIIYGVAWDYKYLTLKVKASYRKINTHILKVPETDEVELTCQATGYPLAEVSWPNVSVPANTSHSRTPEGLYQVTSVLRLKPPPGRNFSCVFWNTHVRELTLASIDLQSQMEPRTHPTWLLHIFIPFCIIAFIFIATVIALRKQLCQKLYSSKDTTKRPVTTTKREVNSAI
Nature of the assay: flow cytometry dot plots: 293 cells transfected with PDL2-EGFP, hu56V2-Fc, anti-hIg-PE. A general note: In flow cytometry, cells or beads pass a laser one at a time.

Assay [2] has as its target T2, B7H4 (human, UniProt Q7Z7D3).
T2 construct: full length on the cell membrane, C-terminal EGFP fusion; Named only by the column head on the sheet; also called human B7H4-EGFP on HEK293 cells
T2 sequence (membrane protein on transfected HEK293 cells, looked up): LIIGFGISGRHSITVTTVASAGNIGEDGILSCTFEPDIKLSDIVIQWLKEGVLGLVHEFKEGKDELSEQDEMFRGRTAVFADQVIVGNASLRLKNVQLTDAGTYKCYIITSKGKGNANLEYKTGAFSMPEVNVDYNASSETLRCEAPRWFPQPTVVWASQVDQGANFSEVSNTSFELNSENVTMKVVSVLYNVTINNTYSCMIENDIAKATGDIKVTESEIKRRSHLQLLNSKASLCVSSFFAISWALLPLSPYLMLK
The experiment in a line: flow cytometry dot plots: 293 cells transfected with a B7 family protein-EGFP (B7H4 on the sheet), hu56V2-Fc, anti-hIg-PE.

Assay [3] has as its target T3, human B7H3-EGFP on HEK293 cells (human, UniProt Q5ZPR3 29-534).
T3 construct: whole, on cells; not shown: EGFP protein fused to the C-terminus
T3 sequence (looked up): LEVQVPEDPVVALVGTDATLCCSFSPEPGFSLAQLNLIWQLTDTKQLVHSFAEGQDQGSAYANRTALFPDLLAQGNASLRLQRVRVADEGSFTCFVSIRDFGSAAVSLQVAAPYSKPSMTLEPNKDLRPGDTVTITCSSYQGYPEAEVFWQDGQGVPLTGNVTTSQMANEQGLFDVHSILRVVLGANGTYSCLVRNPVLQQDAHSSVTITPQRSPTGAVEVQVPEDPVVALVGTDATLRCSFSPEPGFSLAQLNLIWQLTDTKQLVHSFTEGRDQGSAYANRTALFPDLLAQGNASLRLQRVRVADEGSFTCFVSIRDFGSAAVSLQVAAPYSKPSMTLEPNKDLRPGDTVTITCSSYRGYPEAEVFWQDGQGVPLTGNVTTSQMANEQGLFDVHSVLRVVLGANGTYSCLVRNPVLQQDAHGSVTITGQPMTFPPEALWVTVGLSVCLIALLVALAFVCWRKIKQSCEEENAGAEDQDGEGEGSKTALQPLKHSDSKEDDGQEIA
The experiment in a line: flow cytometry dot plots: 293 cells transfected with B7H3-EGFP, hu56V2-Fc, anti-hIg-PE.

The target of assay [4] is Human FcRn protein (RnD Systems Cat. No. 8639-FC) (human, UniProt P55899 part only; P61769 part only). The experiment in a line: BLI, Octet K2, biotinylated Fc fusion on SA biosensor, FcRn 12.5-200 nM. For orientation: In BLI a coated tip is dipped into the sample, and binding shifts an interference pattern.
In assay [5] the target is T4, biotinylated PDL1-muFc (human, biotinylated (sites not given)).
T4 construct: PDL1 fused to a mouse Fc; also called human PDL1-muFc; soluble PDL1-muFc protein
Nature of the assay: flow cytometry competition: Jurkat-PD1 cells incubated with biotinylated PDL1-muFc 30 µg/ml, then dilution series of the Fc fusion protein, Streptavidin PE, MFI; the blocked partner is human PD1 on the Jurkat cells; the sheet labels it EC50, the text calls it IC50; unit from the axis.

The target of assay [6] is T5, human PDL1 protein on the cell membrane (human, UniProt Q9NZQ7).
T5 construct: whole, on cells; also used here for Raji-PDL1 cells and for native PDL1 on lung cancer tissue sections; also called Raji-PDL1
Nature of the assay: flow cytometry competition: 293 cells expressing PDL1 on the membrane, PD1-muFc 2 µg/ml (blocked ligand), PE goat anti-mouse antibody, MFI, four-parameter fit; the sheet labels it EC50, the text calls it IC50; unit from the axis.

Chain of UniProt P55899 (P55899 24-297 limits assumed, chain 1 of 2): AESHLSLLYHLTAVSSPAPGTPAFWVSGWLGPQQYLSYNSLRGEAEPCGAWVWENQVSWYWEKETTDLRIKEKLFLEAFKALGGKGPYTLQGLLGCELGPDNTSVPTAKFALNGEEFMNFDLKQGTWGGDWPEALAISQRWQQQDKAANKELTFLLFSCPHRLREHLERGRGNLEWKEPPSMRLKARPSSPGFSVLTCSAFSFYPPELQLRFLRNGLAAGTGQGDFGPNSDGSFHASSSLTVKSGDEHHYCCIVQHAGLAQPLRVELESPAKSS
Chain of UniProt P55899 (P61769 21-119 limits assumed, chain 2 of 2, further chain): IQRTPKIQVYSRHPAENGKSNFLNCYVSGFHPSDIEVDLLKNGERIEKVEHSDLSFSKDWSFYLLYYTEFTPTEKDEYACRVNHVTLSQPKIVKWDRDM
Chain of biotinylated PDL1-muFc (chain, as listed by the source limits assumed): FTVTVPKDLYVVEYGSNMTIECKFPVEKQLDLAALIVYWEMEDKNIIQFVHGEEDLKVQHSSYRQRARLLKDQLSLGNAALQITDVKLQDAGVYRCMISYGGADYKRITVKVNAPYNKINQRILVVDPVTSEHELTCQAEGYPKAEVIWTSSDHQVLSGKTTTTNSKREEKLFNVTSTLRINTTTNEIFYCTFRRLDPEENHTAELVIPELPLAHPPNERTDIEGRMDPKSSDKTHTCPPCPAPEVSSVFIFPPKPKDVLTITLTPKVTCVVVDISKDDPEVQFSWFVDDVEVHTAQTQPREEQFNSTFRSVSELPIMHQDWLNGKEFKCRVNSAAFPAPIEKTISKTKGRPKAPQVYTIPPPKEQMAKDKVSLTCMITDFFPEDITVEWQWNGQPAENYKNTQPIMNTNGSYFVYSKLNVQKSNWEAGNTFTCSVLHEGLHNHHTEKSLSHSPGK
T5 sequence (Q9NZQ7 19-290): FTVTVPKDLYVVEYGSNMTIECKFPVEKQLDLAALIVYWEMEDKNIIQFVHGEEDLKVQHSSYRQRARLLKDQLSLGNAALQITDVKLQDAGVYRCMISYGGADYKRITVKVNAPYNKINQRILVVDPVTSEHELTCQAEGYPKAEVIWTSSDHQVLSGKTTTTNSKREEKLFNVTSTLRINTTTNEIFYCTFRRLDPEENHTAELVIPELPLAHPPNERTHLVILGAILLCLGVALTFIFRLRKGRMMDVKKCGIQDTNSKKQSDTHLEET

B1: hu56V2-Fc (Fc fusion)
chain: QVQLVESGGGLVQPGGSLRLSCAASGFTFSRRCMAWFRQAPGKERERVAKLLTTSGSTYLADSVKGRFTISRDNSKNTVYLQMNSLRAEDTAVYYCAADSFEDPTCTLVTSSGAFQYWGQGTLVTVSS[sequence of human IgG1 Fc not given]
notes: humanized VHH Hu56V2 fused to human IgG1 Fc; biotinylated in the FcRn assay; also called PDL1-hu56V2-Fc; KN035
In the case of B1, the binding result in assay [1], in assay [2] and in assay [3] was “no binding” each time.

B2: hu56V1-Fcm1 (Fc fusion)
chain: QVQLVESGGGLVQPGGSLRLSCAASGKMSSRRCMAWFRQAPGKERERVAKLLTTSGSTYLADSVKGRFTISRDNSKNTVYLQMNSLRAEDTAVYYCAADSFEDPTCTLVTSSGAFQYWGQGTLVTVSS[sequence of human IgG1 Fc with C220S D265A P331G (EU numbers) not given]
notes: humanized VHH Hu56V1 fused to mutant human IgG1 Fc (Fc-m1); biotinylated in the FcRn assay
As for B2, in assay [4], the Kd worked out at 0.51 µM, the koff was 0.0963 s⁻¹ and the kon was 189000 M⁻¹ s⁻¹. For the same molecule, the IC50 in assay [5] was determined as 13.4 mg/L. In assay [6], the half-inhibitory concentration (IC50) came to 0.249 mg/L.

B3: hu56V2-Fcm1 (Fc fusion)
chain: QVQLVESGGGLVQPGGSLRLSCAASGFTFSRRCMAWFRQAPGKERERVAKLLTTSGSTYLADSVKGRFTISRDNSKNTVYLQMNSLRAEDTAVYYCAADSFEDPTCTLVTSSGAFQYWGQGTLVTVSS[sequence of human IgG1 Fc with C220S D265A P331G (EU numbers) not given]
notes: humanized VHH Hu56V2 fused to mutant human IgG1 Fc (Fc-m1); biotinylated in the FcRn assay
In assay [4], B3 returned a dissociation constant Kd of 0.51 µM, a koff of 0.119 s⁻¹ and a kon of 234000 M⁻¹ s⁻¹.

One may read the Kd as the concentration at which binding is half-saturated. As usually defined, the koff is a measure of how fast the partners let go of each other. A low value points to a long-lived complex. As usually defined, the kon is the rate constant with which the complex forms. Read a low kon as slower complex formation. One may read the IC50 as the concentration at which inhibition is half-maximal. Read a high IC50 as lower potency.

Source of the values: patent publication US20180327494A1 (SUZHOU ALPHAMAB, published 2018).
